To fix the notation:
B1: Halo-tagged wild-type human platelet-activating factor receptor [modified: Halo-tag covalently labelled with HaloTag Alexa Fluor 488 (imaging) or HaloTag Alexa Fluor 660 (blots); Halo-tag covalently labelled with HaloTag Alexa … (parent)
chain: MEPHDSSHMDSEFRYTLFPIVYSIIFVLGVIANGYVLWVFARLYPCKKFNEIKIFMVNLTMADMLFLITLPLWIVYYQNQGNWILPKFLCNVAGCLFFINTYCSVAFLGVITYNRFQAVTRPIKTAQANTRKRGISLSLVIWVAIVGAASYFLILDSTNTVPDSAGSGNVTRCFEHYEKGSVPVLIIHIFIVFSFFLVFLIILFCNLVIIRTLLMQPVQQQRNAEVKRRALWMVCTVLAVFIICFVPHHVVQLPWTLAELGFQDSKFHQAINDAHQVTLCLLSTNCVLDPVIYCFLTKKFRKHLTEKFYSMRSSRKCSRATTDTVTEVVVPFNQIPGNSLKN
B2: Wild-type human PAFR fused at its C terminus to Venus (PAFR-Venus) or to Renilla luciferase 8 (PAFR-Rluc) [human] / Human GRK3 fused to Renilla luciferase [human] (parent)
chain 1: MADLEAVLADVSYLMAMEKSKATPAARASKRIVLPEPSIRSVMQKYLAERNEITFDKIFNQKIGFLLFKDFCLNEINEAVPQVKFYEEIKEYEKLDNEEDRLCRSRQIYDAYIMKELLSCSHPFSKQAVEHVQSHLSKKQVTSTLFQPYIEEICESLRGDIFQKFMESDKFTRFCQWKNVELNIHLTMNEFSVHRIIGRGGFGEVYGCRKADTGKMYAMKCLDKKRIKMKQGETLALNERIMLSLVSTGDCPFIVCMTYAFHTPDKLCFILDLMNGGDLHYHLSQHGVFSEKEMRFYATEIILGLEHMHNRFVVYRDLKPANILLDEHGHARISDLGLACDFSKKKPHASVGTHGYMAPEVLQKGTAYDSSADWFSLGCMLFKLLRGHSPFRQHKTKDKHEIDRMTLTVNVELPDTFSPELKSLLEGLLQRDVSKRLGCHGGGSQEVKEHSFFKGVDWQHVYLQKYPPPLIPPRGEVNAADAFDIGSFDEEDTKGIKLLDCDQELYKNFPLVISERWQQEVTETVYEAVNADTDKIEARKRAKNKQLGHEEDYALGKDCIMHGYMLKLGNPFLTQWQRRYFYLFPNRLEWRGEGESRQNLLTMEQILSVEETQIKDKKCILFRIKGGKQFVLQCESDPEFVQWKKELNETFKEAQRLLRRAPKFLNKPRSGTVELPKPSLCHRNSNGL
chain 2: B1 chain
B3: Wild-type human PAFR fused at its C terminus to Venus (PAFR-Venus) or to Renilla luciferase 8 (PAFR-Rluc) [human] / Human β-arrestin1 tagged with Rluc [human] (parent)
chain 1: MGDKGTRVFKKASPNGKLTVYLGKRDFVDHIDLVDPVDGVVLVDPEYLKERRVYVTLTCAFRYGREDLDVLGLTFRKDLFVANVQSFPPAPEDKKPLTRLQERLIKKLGEHAYPFTFEIPPNLPCSVTLQPGPEDTGKACGVDYEVKAFCAENLEEKIHKRNSVRLVIRKVQYAPERPGPQPTAETTRQFLMSDKPLHLEASLDKEIYYHGEPISVNVHVTNNTNKTVKKIKISVRQYADICLFNTAQYKCPVAMEEADDTVAPSSTFCKVYTLTPFLANNREKRGLALDGKLKHEDTNLASSTLLREGANREILGIIVSYKVKVKLVVSRGGLLGDLASSDVAVELPFTLMHPKPKEEPPHREVPENETPVDTNLIELDTNDDDIVFEDFARQRLKGMKDDKEEEEDGTGSPQLNNR
chain 2: B1 chain
B4: Wild-type human PAFR fused at its C terminus to Venus (PAFR-Venus) or to Renilla luciferase 8 (PAFR-Rluc) [human] / Human GRK2 fused to Renilla luciferase [human] (parent)
chain 1: MADLEAVLADVSYLMAMEKSKATPAARASKKILLPEPSIRSVMQKYLEDRGEVTFEKIFSQKLGYLLFRDFCLNHLEEARPLVEFYEEIKKYEKLETEEERVARSREIFDSYIMKELLACSHPFSKSATEHVQGHLGKKQVPPDLFQPYIEEICQNLRGDVFQKFIESDKFTRFCQWKNVELNIHLTMNDFSVHRIIGRGGFGEVYGCRKADTGKMYAMKCLDKKRIKMKQGETLALNERIMLSLVSTGDCPFIVCMSYAFHTPDKLSFILDLMNGGDLHYHLSQHGVFSEADMRFYAAEIILGLEHMHNRFVVYRDLKPANILLDEHGHVRISDLGLACDFSKKKPHASVGTHGYMAPEVLQKGVAYDSSADWFSLGCMLFKLLRGHSPFRQHKTKDKHEIDRMTLTMAVELPDSFSPELRSLLEGLLQRDVNRRLGCLGRGAQEVKESPFFRSLDWQMVFLQKYPPPLIPPRGEVNAADAFDIGSFDEEDTKGIKLLDSDQELYRNFPLTISERWQQEVAETVFDTINAETDRLEARKKAKNKQLGHEEDYALGKDCIMHGYMSKMGNPFLTQWQRRYFYLFPNRLEWRGEGEAPQSLLTMEEIQSVEETQIKERKCLLLKIRGGKQFILQCDSDPELVQWKKELRDAYREAQQLVQRVPKMKNKPRSPVVELSKVPLVQRGSANGL
chain 2: B1 chain

The variants in one experiment derive from B1. Kind of experiment: cysteine cross-linking with CuP, SDS-PAGE blot quantification of cell surface Halo-PAFR. The note with it: parent: 5, read off a plot.
With chain 1 Y151C, the screen value was determined as 72%. Take chain 1 I154C: the screen value came to 50%. In the case of chain 1 I20C, the screen value was 50%. In the case of chain 1 G147C, the screen value turned out to be 42%. Regarding chain 1 I186C, the screen value came out at 50%.

In a further experiment the parent is B2. Kind of experiment: BRET between GRK3-Rluc and PAFR-Venus. The note with it: with Human GRK3 fused to Renilla luciferase [human]; PAF (1 μM); parent: 100; read off a plot. (In BRET a luciferase serves as donor, and the signal depends on an acceptor being close.)
Consider chain 2 E178K, for which the percent of parent turned out to be 180 % WT. Same read-out and setting: the figure for chain 2 Y151C I154C is 150 % WT.

Variants of B3 are the subject of a further experiment. Kind of experiment: BRET kinetics between PAFR-Venus and βarr1-Rluc. The conditions noted are these: PAF (1 μM) injected at about 50 s, value read at the last time point, about 400 s, parent: 100, read off a plot.
For the variant chain 2 T324A E327A, the percent of parent stood at 32 % WT.

Another experiment covers variants of B4. Kind of experiment: BRET between GRK2-Rluc and PAFR-Venus. The conditions noted are these: with Human GRK2 fused to Renilla luciferase [human]; PAF (1 μM); parent: 100; read off a plot.
Take chain 2 E178K: the percent of parent came out at 170 % WT. As for chain 2 Y151C I154C, the percent of parent was determined as 120 % WT.

Values taken from PMC9606269.
